# Experimental data taken from ChEMBL document CHEMBL1156829.
# In all, about 5,400 compounds were measured (“IFI”: median about 2, highest 2% from about 22 on). Some of the results follow.
# Experiment: NOVARTIS: Inhibition Frequency Index (IFI) - the number of HTS assays where a compound showed > 50% inhibition/induction, expressed as a percentage of the number of assays in which the compound was tested.
# Format: functional
row,Compound,IFI [%]
1,COc1ccc(CC(=O)Nc2ccc(S(=O)(=O)N3CCCCCC3)cc2)cc1,0
2,CCOCCCNc1nc2cc(OC)c(OC)cc2c2nc(-c3ccccc3)nn12,0
3,CC(NCCN1CCNCC1)c1cc(C(C)(C)C)cc2c1CCC2(C)C (stereo unspecified),6.67
4,O=c1[nH]c(N2CCCC2)nc2c1CCN(Cc1coc3ccccc3c1=O)C2,0
5,O=C(NC1CC1)C1CCN(c2cccc3c2C(=O)N(Cc2cccc(C(F)(F)F)c2)C3=O)CC1,4.24
6,C=CC[n+]1c(C=C2C=CC=CN2C)sc2ccccc21,7.14
7,CCc1c(C)c(C#N)c2nc3ccccc3n2c1NCc1ccco1,3.65
8,CCOc1ccc(-c2c[n+](-c3ccccc3)c3n2CCS3)cc1,7.69
9,COc1ccc(C2c3[nH]c4ccccc4c3C[C@@H]3C(=O)N(CCC(C)C)CC(=O)N23)cc1 (stereo partly specified),0
10,CCOC(=O)c1ccc(-c2c(-c3cc(CC)c(OC)cc3O)noc2C)o1,2.44
11,COc1cccc(CNc2ncnc3sc(C(=O)NCC4COCCO4)c(C)c23)c1OC (stereo unspecified),1
12,CSc1c(C(=O)Nc2ccc(Br)cc2)ccc2c1C(=O)c1ccccc1C2=O,1.35
13,COc1ccc(NC(=O)C2=C(C)Nc3c(C(=O)Nc4ccc(C)cc4)cnn3C2c2cccc(Cl)c2)cc1 (stereo unspecified),0
14,COc1ccc(C2C(C(=O)Nc3cnc4ccccc4c3)c3ccccc3C(=O)N2Cc2ccc(F)cc2)cc1 (stereo unspecified),1.18
15,CSc1nc2sc3c(c2c(=O)n1-c1ccccc1)CCN(CCc1ccccc1)C3,9.8
16,Cc1cc(Nc2ccc(C)c(C)c2)n2nc(C)nc2n1,0
17,O=C(C1CCN(C(c2ccc(F)cc2)c2ccc(F)cc2)CC1)N1CCCC1,1.96
18,CC(C)(C)CC(C)(C)Nc1c(-c2ccccc2OC(=O)c2ccc(Cl)c(Cl)c2)nc2ccccn12,4.72
19,Cc1ccc(-n2nnnc2SCc2nc(-c3cccc([N+](=O)[O-])c3)no2)c(C)c1,1.5
20,CC1(C)O[C@@H]2OC([C@@H](O)CNc3ccc([N+](=O)[O-])cc3[N+](=O)[O-])C(O)[C@@H]2O1 (stereo partly specified),0.746
21,O=C(NCCc1ccccc1)c1cnc(NCCCn2ccnc2)nc1NCC1CCCCC1,1.91
22,O=C(COc1ccccc1)NC(c1ccc([N+](=O)[O-])cc1)c1cc(Cl)c2cccnc2c1O (stereo unspecified),0
23,COc1ccc(-c2cn(-c3ccc(OC)cc3)c(SCC(=O)Nc3ccccc3)n2)cc1,0
24,CC(=NNC(=O)/C(=C/c1ccc([N+](=O)[O-])cc1)NC(=O)c1ccccc1)c1ccccn1,10.4

row,Compound,IFI [%]
1,COc1ccc(CCNC(=O)c2cc(S(=O)(=O)N3CC(C)CC(C)C3)ccc2Sc2ccc(F)cc2)cc1OC (stereo unspecified),0
2,CC(C)c1ccc(NC(=O)c2ccc(NCCCN(C)Cc3ccccc3)c([N+](=O)[O-])c2)cc1,0
3,Cc1ccn2c(NC(C)(C)CC(C)(C)C)c(-c3ccccc3OC(=O)c3ccc4ccccc4c3)nc2c1,5.26
4,COc1ccc(-c2c[n+](CC(=O)c3ccc(Cl)cc3)c3n2CCC3)cc1,5
5,CN(C)CCNc1c2c(nc3ccccc13)CCC2,2.3
6,CN(C)CCNC(=S)Nc1cccc(C(F)(F)F)c1,0
7,Cc1ccc(C(=O)NCCN2CCCCC2)cn1,0.69
8,COc1ccc(CN(CC2CCN(C(=O)c3ccccc3Cl)CC2)C(=O)c2ccc(Cl)cc2Cl)cc1,0.935
9,CCN1/C(=C/c2sc3ccc(I)cc3[n+]2CC)C=Cc2ccccc21,15.4
10,CCOC(=O)c1cnc2c(OC)cccc2c1Nc1cc(C)c(Cl)cc1OC,0
11,COC(=O)C1=C(C)N/C(=C\c2cc(C)n(-c3cc(C)ccc3OC)c2C)C1=O,0
12,FC(F)(F)c1cccc(-c2cncc(N3CCN(c4ccccn4)CC3)n2)c1,0
13,COCC(=O)Oc1ccccc1-c1nc2cc(C)ccn2c1NC(C)(C)CC(C)(C)C,3.74
14,CC(C)CN1CCN(c2nc(C#N)c3c(c2C(=S)NC2CCCCC2)CC(C)(C)OC3)CC1,0
15,COC(=O)C1=C(C)NC2=C(C(=O)CC(c3ccc(OC)c(OC)c3)C2)C1c1ccc(F)cc1 (stereo unspecified),7.06
16,CCN(CC)c1ccc2cc(C(C)=NNC(N)=S)c(=O)oc2c1,0
17,c1cncc(-c2nc3cc(-c4ccc5[nH]c(-c6cccnc6)nc5c4)ccc3[nH]2)c1,5.56
18,CCCCCCCC(O)(c1ccc(OCC)cc1)C(CN1CCCCC1)c1ccccc1 (stereo unspecified),2.86
19,CCN1CCN(c2nc3ccccn3c(=O)c2/C=C2\SC(=S)N(C(C)C)C2=O)CC1,0
20,Cc1nc2c(C)c(-c3ccccc3)nn2c(O)c1C,1.54
21,Cc1cc(/C=C2\SC(=Nc3ccccc3)N(C3CCCCC3)C2=O)c(C)n1-c1ccc(F)cc1,1.15
22,Cc1cccnc1NC(c1ccc([N+](=O)[O-])cc1)c1ccc2cccnc2c1O (stereo unspecified),7.69
23,COC(=O)C1=C(C)NC2=C(C(=O)CC(c3ccc(Cl)cc3)C2)C1c1ccccc1 (stereo unspecified),2.3
24,CCN(CC)CCNC(=O)c1cc(-c2ccc(Cl)cc2)cc(-n2cnnn2)c1,1.72

row,Compound,IFI [%]
1,O=C1NC(=S)N/C1=C/c1ccc(C(F)(F)F)cc1,0
2,CCOC(=O)N1CCc2c(sc(NCc3ccc(C)o3)c2C(=O)Nc2ccc(OC)cc2OC)C1,0
3,Cc1c(C(=O)N2CCC3(CCN(C)C3)C2)cnn1-c1ncc2c(n1)-c1ccccc1SC2 (stereo unspecified),3
4,Brc1ccc2c(c1)c1ccccc1n2CC1CO1 (stereo unspecified),8.33
5,CCCN1CCN(C(=O)CCNC(=O)Cn2cnc3ccccc3c2=O)CC1,1.19
6,Clc1ccc(-c2c[n+](-c3ccccc3)c3n2CCS3)cc1,0.725
7,CCN(CC)CCCN(Cc1cc2cc(OC)ccc2[nH]c1=O)C(=S)Nc1ccc(C)cc1,5.41
8,COc1cc(NC(C)CCCN(Cc2ccc(N(C)C)cc2)C(=O)c2ccc(F)cc2)c2ncccc2c1 (stereo unspecified),5.61
9,CCCCCN(C(=O)CCc1ccccc1)C(CC)c1nc2ccccc2c(=O)n1-c1ccc(Cl)cc1C (stereo unspecified),2.91
10,O=C(CCCn1c2ccccc2c(=O)c2ccccc21)NCc1ccc(F)cc1,0
11,CC1=C(C(=O)OC(C)C)C(c2ccc([N+](=O)[O-])cc2)C2=C(CCCC2=O)N1 (stereo unspecified),1.14
12,Cc1ccc(-c2nnc(Nc3ccc(F)cc3)c3ccccc23)cc1S(=O)(=O)NCC1CCCO1 (stereo unspecified),6.06
13,Cc1cc(S(=O)(=O)NC(Cc2ccc([N+](=O)[O-])cc2)C(=O)O)c(Cl)cc1Cl (stereo unspecified),1.03
14,Cc1cc(Cl)ccc1OC(C)C(=O)N1CCc2ccccc21 (stereo unspecified),3.23
15,CC(C)CCNCC(O)Cn1c2ccccc2c2ccccc21 (stereo unspecified),1.41
16,O=C(c1ccc(F)cc1Cl)N1CCN(c2nc(-c3cccs3)ns2)CC1,0.935
17,CN(C)c1ccc(C=CC=Cc2cccc[n+]2C)cc1,17.3
18,COc1ccc(CN2CCC(Sc3ncccn3)CC2)cc1,1.39
19,COc1ccc2nc(C)cc(Nc3ccc(Oc4ccc(Cl)cc4)c(Cl)c3)c2c1,12.5
20,Cc1cc(NC2CCCCC2)nc(NCc2ccccc2)n1,0
21,Cc1ccc(C(C(=O)NC(C)(C)C)N(C(=O)c2ccc(-c3ccccc3)[nH]2)c2ccc(C3CCCCC3)cc2)o1 (stereo unspecified),3.16
22,Cc1ccn2c(NC(C)(C)CC(C)(C)C)c(-c3ccccc3OC(=O)c3cccs3)nc2c1,3.74
23,O=C(Nc1ccc(-c2nc3ccc(NC(=O)c4ccc(Br)cc4)cc3[nH]2)cc1)c1ccc(Br)cc1,4.92
24,C[N+](C)(CC#Cc1ccccc1)CC#Cc1ccccc1,3.64

row,Compound,IFI [%]
1,CCOC(=O)C1=C(C)N=c2sc(=Cc3ccc(I)o3)c(=O)n2C1c1ccccc1Cl (stereo unspecified),4.82
2,CCCCNC(=O)NC(Cc1c[nH]c2ccccc12)C(=O)NC1CCCCC1 (stereo unspecified),4.21
3,Oc1cccc(Nc2nc(NCc3ccco3)c3ccccc3n2)c1,0
4,O=C(Nc1cc(Cl)cc(Cl)c1)C1C2C=CC3(O2)C1C(=O)N(CCC1=CCCCC1)C3C(=O)NC1CCCCC1 (stereo unspecified),2.13
5,CCCCCNC(=O)C1CSC(c2ccoc2)N1C(=O)c1ccccc1Cl (stereo unspecified),0.943
6,COC(=O)COc1ccc(/C=C2\SC(=Nc3ccc(F)cc3)NC2=O)cc1,0
7,CCCCOc1ccc(C(=O)Nc2cc(C)on2)cc1,0
8,CCCCC(=O)N(C)CCCNc1ccnc2cc(Cl)ccc12,1.87
9,O=S1(=O)CCC(O)c2ccsc21 (stereo unspecified),0
10,CN(C)CCCN(Cc1cc2cc3c(cc2[nH]c1=O)OCO3)C(=S)Nc1cccc(Cl)c1,4.96
11,COc1cccc(-c2ccc(O)c(CNC(C)c3cccc4ccccc34)c2)n1 (stereo unspecified),2.56
12,COc1nc(C)nc(NC(=O)NC(=O)c2c(OC)ccc([N+](=O)[O-])c2OC)n1,2.61
13,Cc1ccc(NC(=O)C(C)Sc2nnc(-c3ccc(O)cc3)o2)cc1 (stereo unspecified),6.14
14,O=C(O)c1cccc(N2N=C(c3ccccc3)CC2=O)c1,4.82
15,COc1ccc(C2CC(=O)C3=C(C2)NC(C)=C(C(=O)OC2CCCC2)C3c2cccc(Cl)c2)cc1OC (stereo unspecified),8.23
16,C=CCc1c(C)nc2ccc(Br)cc2c1O,0
17,COc1ccc(C2CC(=O)C3=C(C2)NC(=O)CC3c2ccc([N+](=O)[O-])cc2)cc1OC (stereo unspecified),0
18,CO[C@H]1C[C@H](C)Cc2cc(O)cc(c2)NC(=O)C(C)=CCC[C@H](OC)[C@@H](OC(N)=O)C(C)=CC(C)[C@H]1O (stereo partly specified),9.62
19,COc1ccc(CNCc2cc(-c3ccnc4cc(Cl)ccc34)ccc2O)c(OC)c1,3.48
20,Cc1cc(N2CCC(C)CC2)nc(-n2nc(C)cc2C)n1,1.61
21,O=C(CSc1nc2ccccc2c(=O)n1CCCN1CCOCC1)Nc1cccc(S(=O)(=O)N2CCCCCC2)c1,3.03
22,CCCN1CCC(N2C[C@@H](NCc3ccc(OCc4ccccc4)cc3)C[C@H]2C(=O)NCCc2ccc3c(c2)OCO3)CC1,9.71
23,CCn1c(=NC(=O)c2cc(=O)c3ccccc3o2)sc2c(OC)ccc(OC)c21,1.89
24,CCOc1cc(-c2nc3c(=O)n(C)c(=O)nc-3n(C)n2)ccc1OC(C)C,30.8
